# This is one part of the list. The full chains were built here from the parent and the listed change. Inactive controls read about 0.05.
# B1: TEV protease; numbered along this chain (parent)
# chain: MGESLFKGPRDYNPISSSICHLTNESDGHTTSLYGIGFGPFIITNKHLFRRNNGTLVVQSLHGVFKVKDTTTLQQHLVDGRDMIIIRMPKDFPPFPQKLKFREPQREERICLVTTNFQTKSMSSMVSDTSCTFPSGDGIFWKHWIQTKDGQCGSPLVSTRDGFIVGIHSASNFTNTNNYFTSVPKNFMELLTNQEAQQWVSGWRLNADSVLWGGHKVFMVKPEEPFQPVKEATQL
# Variants of: B1
# Experiment: raw area under fraction-flipped curve 0-4 h after induction (AUC4h, not background-subtracted), DNA-recorder readout of cleavage of the substrate (dimensionless); higher = more cleavage of the substrate by the protease variant
# Conditions: temperature: 34 °C; time window: 0-4 h after rhamnose induction
# Description: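 In vivo DNA recorder in E. coli TOP10(DE3) ΔrhaA at 34 °C. Each TEVp single-site mutant (parent TEVp 0) is paired with a single-site variant of the 7-mer TEVs (canonical ENLYFQ|S). The substrate sits between flexible linkers in a Bxb1-sfGFP-TEVs-SsrA fusion, so cleavage stabilises Bxb1 and speeds flipping of a recombination array, read by NGS. The value is the raw area under the fraction-flipped curve over 0-4 h after rhamnose induction (AUC4h), with ≥20 reads per time point. It is not background-subtracted; inactive controls average about 0.047.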
# 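Also: Bxb1 expression induced with 0.2% (w/v) L-rhamnose at OD600 near 0.5, cultures sampled hourly, flipped fraction per protease–substrate barcode pair counted by paired-end Illumina sequencing.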
Variant,area with substrate ENLYAQS,area with substrate ENLYEQS,area with substrate ENLYGQS,area with substrate ENLYHQS,area with substrate ENLYIQS,area with substrate ENLYKQS,area with substrate ENLYLQS,area with substrate ENLYNQS,area with substrate ENLYVQS,area with substrate ENLYWQS
T129K,0.0666,0.067,0.0815,0.064,0.121,0.0637,0.0655,0.0773,0.0961,0.0674
G138Y,0.0697,0.0598,0.0483,0.0556,–,0.0636,0.0736,0.0689,0.0784,–
G138P,0.072,–,0.0568,0.0221,–,0.0485,–,0.0568,–,0.0664
G138T,0.121,0.068,–,0.0394,–,0.0233,–,–,–,–
V183G,0,0.0588,–,0.0405,–,–,–,0.0356,0.072,0.0179
D137Q,0.0542,0.0937,0.0881,–,0.114,0.067,–,0.0617,0.103,–
D137H,0.0614,0.0743,0.0604,0.0641,0.135,–,0.0831,0.0664,–,–
D137S,0.0633,–,–,–,–,0.0153,0.0855,0.0572,–,0.0584
S169K,0.0659,–,–,–,–,–,–,–,0.0564,0.0146
I85A,0.0635,0.0579,–,–,–,0.0607,–,–,–,–
T114L,0.0739,–,–,0.07,0.142,0.0287,–,–,0.136,0.0856
N178C,0.0679,0.0586,–,0.068,–,–,–,–,–,–
W141F,0.077,0.0602,0.0758,0.0536,0.0983,0.0628,–,0.0664,0.115,–
Q97C,0.0665,–,–,0.0487,0.158,–,–,–,0.109,–
T115Q,0.0826,0.102,0.0646,0.0714,0.123,0.0301,0.0875,0.0767,0.124,0.0908
L190P,0.0763,0.0676,0.0707,0.0532,–,0.0666,0.0682,–,0.108,–
S60W,0.0794,0.0686,0.0648,–,0.139,0.0645,–,0.0944,–,–

Variant,area with substrate ENLYAQS,area with substrate ENLYEQS,area with substrate ENLYGQS,area with substrate ENLYHQS,area with substrate ENLYIQS,area with substrate ENLYKQS,area with substrate ENLYLQS,area with substrate ENLYNQS,area with substrate ENLYVQS,area with substrate ENLYWQS
E103M,0.0702,0.0625,0.0629,0.0608,–,0.0431,0.0748,0.0786,0.114,0.0672
E103D,0.0898,–,0.056,–,–,0.0485,0.0859,0.0648,–,0.0683
E189L,0.0628,0.0678,–,0.0602,–,0.067,0.0824,0.0599,0.128,0.0778
K98R,0.0753,–,0.0761,0.0649,0.129,0.0677,0.0824,0.0718,0.121,0.0727
I110R,0.0547,–,0.0559,–,–,0.0573,–,–,–,0.0807
S171Y,0.071,0.0572,0.0578,0.0436,–,0.0653,–,0.0618,0.0661,–
K100D,0.0649,0.0688,–,0.0754,–,0.0707,0.0761,0.0545,0.132,0.0696
F187G,0.0584,0.0638,0.0442,0.0491,0.0588,0.0422,–,0.0582,0.0745,–
F187A,0.0578,0.0517,0.112,0.0556,0.0871,0.0574,–,0.0562,0.121,0.0718
F180H,0.0732,0.0858,–,0.0673,–,–,–,0.0629,–,–
Q194C,0.0736,0.0618,0.0651,0.0867,–,0.0776,–,0.0712,0.108,0.0704
N177M,0.0368,0.0604,–,–,–,0.0631,–,0.0799,–,0.0968
W199Y,0.0781,–,–,0.051,–,0.0573,–,0.0551,–,–
F65I,0.0424,0.0526,0.0525,0.0624,–,–,–,–,–,0.0648
I84H,0.0697,–,0.0375,0.0453,–,0.0833,–,0.0502,0.0589,0.0535
G153M,0.0331,0.057,–,0.0466,0.0389,–,–,–,–,0.0565
G153I,0.0189,–,–,–,–,0.0453,–,–,–,0.0628

# Same assay, conditions: temperature: 34 °C; time window: 0-4 h after rhamnose induction
Variant,area with substrate ENLYYQS,area with substrate ENLYMQS,area with substrate ENLYPQS,area with substrate ENLYSQS,area with substrate ENLYDQS,area with substrate ENLYQQS,area with substrate ENLYTQS,area with substrate ENLYRQS,area with substrate ENLYCQS
T129K,0.069,–,–,–,–,–,–,–,–
G138Y,–,0.0291,0.0707,0.0649,–,–,–,–,–
G138P,–,–,0.0805,–,0.0537,0.0599,–,–,–
V183G,0.0568,–,0.049,0.038,–,–,0.0549,–,–
D137Q,–,–,0.0713,0.0735,0.0639,–,0.0647,–,–
D137H,–,0.0946,–,–,0.0881,–,0.234,–,–
D137S,–,–,–,–,–,0.0762,0.13,–,–
S169K,–,–,–,–,0.0606,–,–,–,–
I85A,–,0.0572,0.06,–,–,–,–,0.059,–
T114L,–,0.0829,–,–,–,–,0.0836,0.0643,–
W141F,0.0485,0.0717,0.0685,0.0591,0.0616,–,0.0848,0.0532,0.0669
Q97C,–,–,–,–,–,–,0.0845,–,–
T115Q,–,0.107,–,–,0.0638,0.0725,0.0955,–,–
L190P,0.0576,–,0.068,0.0638,–,0.0621,–,0.0396,–
S60W,0.0614,–,0.0783,0.073,–,–,–,0.0605,–
E103M,0.0459,0.0799,0.063,0.0674,0.0606,–,0.0606,0.0631,–

Variant,area with substrate ENLYYQS,area with substrate ENLYMQS,area with substrate ENLYPQS,area with substrate ENLYSQS,area with substrate ENLYDQS,area with substrate ENLYQQS,area with substrate ENLYTQS,area with substrate ENLYRQS,area with substrate ENLYCQS
E103D,0.0547,0.0876,–,0.0798,–,–,0.0845,0.0553,–
E189L,0.0626,0.0772,0.0674,0.0601,–,0.0577,0.0442,–,–
K98R,0.0637,–,0.0757,–,0.0551,0.0609,0.0996,–,–
I110R,–,–,–,0.0666,0.0554,–,–,–,–
S171Y,0.0365,0.0662,–,0.0555,0.0685,0.0505,0.0593,0.0762,–
K100D,0.0753,0.126,–,0.0773,–,–,–,0.0583,–
F187G,–,0.0521,0.0641,–,0.0512,–,–,0.0501,0.0724
F187A,–,0.0566,0.0551,0.0692,0.0671,–,–,–,–
F180H,–,–,–,–,–,0.0782,–,–,–
Q194C,–,0.0792,0.0709,0.136,0.086,0.0543,0.0834,0.0634,–
N177M,0.0557,–,–,–,0.0537,–,–,–,–
W199Y,–,0.0653,–,–,0.031,–,–,–,–
F65I,–,–,–,–,0.0639,–,0.0798,0.0569,0.0447
I84H,–,0.0565,0.0563,–,0.0626,–,0.0476,0.0551,–
G153M,–,0.0542,0.0393,–,–,0.059,–,–,–
G153I,–,–,0.0452,–,–,0.0564,–,0.0537,–

# From the supplement of paper PMC12217912
